The results in this text go back to PubChem BioAssay AID1159614 (National Center for Advancing Translational Sciences (NCATS), 2016).

Molecules are shown by their SMILES. About 65 (0.1%) of roughly 45,000 compounds were called active. Calls follow the shape of the dose curve; as a rule, active = well fitted activation curve with a large enough effect; inconclusive = small, poorly fitted or top-dose-only effect; inactive = no such curve, though single readings can be large or run the other way. Some of the results follow.

UniProt P54803, sequence (P54803 whole entry, looked up): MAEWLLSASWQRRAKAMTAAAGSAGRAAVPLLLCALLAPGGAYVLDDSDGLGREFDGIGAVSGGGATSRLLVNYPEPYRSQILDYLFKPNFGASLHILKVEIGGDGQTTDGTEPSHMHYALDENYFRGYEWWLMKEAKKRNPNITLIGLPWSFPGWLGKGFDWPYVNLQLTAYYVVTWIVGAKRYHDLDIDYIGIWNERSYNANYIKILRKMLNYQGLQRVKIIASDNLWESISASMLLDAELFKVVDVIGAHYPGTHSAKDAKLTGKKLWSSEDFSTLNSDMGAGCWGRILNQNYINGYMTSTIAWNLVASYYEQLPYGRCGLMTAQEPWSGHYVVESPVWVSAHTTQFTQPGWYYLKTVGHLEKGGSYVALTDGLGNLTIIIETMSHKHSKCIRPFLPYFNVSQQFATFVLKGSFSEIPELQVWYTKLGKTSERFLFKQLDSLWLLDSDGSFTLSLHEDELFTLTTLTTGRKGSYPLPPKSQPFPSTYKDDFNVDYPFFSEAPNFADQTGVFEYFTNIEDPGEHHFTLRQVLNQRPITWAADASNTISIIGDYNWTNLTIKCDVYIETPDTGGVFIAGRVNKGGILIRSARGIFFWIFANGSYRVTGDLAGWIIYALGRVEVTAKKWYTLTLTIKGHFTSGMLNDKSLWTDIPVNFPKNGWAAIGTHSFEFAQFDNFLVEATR

The target in the assay is Galactocerebrosidase (Homo sapiens) (UniProt P54803). As to the kind of experiment: A Novel Cell-Based Assay to Identify Small Molecules for B -Galactocerebrosidase. Also: 0% is about no effect; nearly all actives have a fitted effect of over 65% in size. The following applies: 145M-Twi-hGALC-G270D cells, HMU-beta-Gal fluorescence, 48 h; series mostly up to 57.5 µM; activation: at the top concentration. The gist of the method:
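qHTS, 1536-well; 145M-Twi-hGALC-G270D cells (WT line also made) in DMEM/F12 + 10% FBS; compound incubation on live cells; HMU-β-gal 0.1 mM final, pH 5.2, NaTC; carbonate stop; fluorescence increase = enhanced residual activity.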
With `COc1ccc(Cn2ccc3nc(C)c(C(=O)N4CCN(c5ccccc5OC)CC4)cc3c2=O)cc1`, the “activation” value is inactive: -13.4%. As to `CC(C)NC(=O)C(c1ccccc1)N1Cc2ccccc2C1=O` (configuration not stated), the “activation” value was inactive: -20.1%. Next, `CC(C)c1ccc2occ(CC(=O)Nc3ccccc3Cl)c2c1`: inactive: -23.5%; `CCOC(=O)C1CCN(S(=O)(=O)c2ccc(N3CCCCS3(=O)=O)cc2)CC1`: inactive: 18.6%; `CCCCOC(=O)c1ccc(O)cc1`: inactive: -7.52%.

Turning to `COCCCOc1cc(C[C@@H](C[C@H](N)[C@@H](O)C[C@H](C(=O)NCC(C)(C)C(N)=O)C(C)C)C(C)C)ccc1OC`, the “activation” value is inactive: 2.03%. Then `CCCn1c(=O)c2sccc2n2c(CCCC(=O)Nc3ccc(Oc4ccccc4)cc3)nnc12`, with inactive: -9.68%; and `CCn1c(SCc2ccc(F)cc2Cl)nc(=O)c2c(C(=O)OC)cc(C3CC3)nc21`, with inactive: -3.78%. As to `CC(C)C1N=C2c3ccccc3N=C(SCC(=O)NCc3ccccc3Cl)N2C1=O` (configuration not stated), the “activation” value is inactive: -16.4%. Turning to `CNCCCCOc1ccccc1Cc1ccccc1`, the “activation” value is inactive: -7.76%. Then `Cc1ccc(CNC(=O)c2cc(-c3ccc(C)cc3)nc3n[nH]c(-c4ccc(F)cc4)c23)cc1`, with inactive: -10.7%; and `CC(=O)Nc1ccc(S(=O)(=O)NCc2cccn2Cc2cccc(C)c2)cc1`, with inactive: -9.75%. With `CCOc1ccc(CN2C(=O)c3ccccc3Sc3ccc(C(=O)OC)cc32)cc1`, the “activation” value is inactive: -14.2%. Then `COc1ccc(OC)c(CNC(=O)c2c(C)oc3ncn(C)c(=O)c23)c1`, with inactive: -8.13%; and `O=C(c1ccc2c(c1)CCN2S(=O)(=O)c1ccc(Cl)cc1)N1CCN(c2ccccc2)CC1`, with inactive: -31.4%. As for `Nc1ccccc1N`, the “activation” value is inactive: -4.5% [at 114 µM]. Next, `COc1ccc(CNC(=O)c2ccc3c(c2)N(Cc2ccccc2C)C(=O)c2ccccc2S3=O)cc1` (configuration not stated): inactive: -8.15%; `O=C(NCc1ccc(F)cc1)C1CCN(c2ncnc3c2nc2n3CCCCC2)CC1`: inactive: -13.9%. Consider `CC(C)(C)OC(=O)N1CCC(c2c(C(=O)N3CCN(c4ccccn4)CC3)cnn2-c2ccccc2Cl)CC1`, for which the “activation” value is inactive: -12.8%. Next, `CC(=O)c1ccc(NC(c2ccc(F)cc2)c2nnc(-c3ccccc3)o2)cc1` (configuration not stated): inactive: -1.59%; `CCOC(=O)c1[nH]c(C)c(CCC(=O)N2CCN(c3cccc(C)c3C)CC2)c1C`: inactive: -10.9%. Next, `Cc1ccc2nc(-c3ccncc3)c(Nc3ccc(C(C)C)cc3)n2c1`: inactive: -4.34%; `CCOCCCNC(=O)c1cn(CC)c2ccc(S(=O)(=O)N3CCc4ccccc4C3)cc2c1=O`: inactive: -17.2%. Then `COc1cc(C(CC(=O)Nc2cc(C)ccc2C)N2Cc3ccccc3C2=O)cc(OC)c1OC` (configuration not stated), with inactive: -25.3%. In the case of `CN(Cc1ccccc1)C(=O)c1cccc(NC(=O)c2nsc3ccccc23)c1`, the “activation” value was inactive: -28.5%. Regarding `CCOc1ccc(CC(=O)NCCc2csc(-c3ccc(Cl)cc3)n2)cc1`, the “activation” value is inactive: -6.01%. Next, `CCc1ccc(Nc2sc(C(=O)c3ccccc3)c(N)c2S(C)(=O)=O)cc1`: inactive: -16.6%; `CCOCCc1nn2c(=O)cc(COC(=O)CNC(=O)c3ccc(F)cc3)nc2s1`: inactive: -8.36%.

As to `CCN(CC)c1cc(C)c2cc(NC(=O)c3ccc(F)cc3Cl)ccc2n1`, the “activation” value is inactive: 3.5%. Then `CCOc1ccccc1NC(c1nnc(-c2ccccc2)o1)c1ccc(F)cc1Cl` (configuration not stated), with inactive: -9.12%; and `Cn1c(=O)oc2cc(S(=O)(=O)N3CCC(C(=O)N4CCN(c5ccc(Cl)cc5)CC4)CC3)ccc21`, with inactive: -44.6%; and `CCN(C(=O)c1cc2c(=O)oc3ccc(C)cc3c2s1)c1ccccc1F`, with inactive: -25.7%. Then `CCOC(=O)c1c(NC(=O)c2ccc(OC)c(OC)c2)sc2c1CCCCC2`, with inactive: -18.8%; and `O=C(CCOc1ccccc1)N(Cc1cccnc1)c1nc2ccc(F)cc2s1`, with inactive: -13.2%. Next, `O=C(Nc1ccc2oc(-c3ccc(Cl)cc3)nc2c1)c1ccc2ccccc2c1`: inactive: -7.98%; `Cc1ccccc1CNC(=O)Nc1ccc2c(c1)N(C)C(=O)c1ccccc1S2`: inactive: -3.42%; `COc1ccc(C2CC(=O)N(Cc3ccccc3)c3c2c(C)nn3-c2nc(C)cc(C)n2)c(OC)c1` (configuration not stated): inactive: -12.8%. Turning to `Cc1cccc(NS(=O)(=O)c2ccc(NC(=O)N3CCCC3)cc2)c1`, the “activation” value was inactive: -17.2%. Next, `CCOc1ccc(-c2oc3cc(Cl)ccc3c(=O)c2O)cc1OC`: inactive: -5.68%; `CCN(CC)CCCN(c1ccccc1)C1Cc2ccccc2C1`: inactive: -21%. Next, `C/C=C/c1ccc(O)c(OC)c1`: inactive: -8.85%; `CCc1ccc(NS(=O)(=O)c2ccc3[nH]cc(C(=O)N(C)Cc4ccco4)c(=O)c3c2)cc1`: inactive: -6.11%; `CCc1ccccc1NC(=O)Cn1cc2c(n1)CCC(C)C2` (configuration not stated): inactive: -19.1%. Then `CCC(=O)N1CCc2cc(Br)cc(S(=O)(=O)CCC(=O)NCCc3ccccc3)c21`, with inactive: -8.28%. Turning to `O=c1cc(-c2ccccc2)c2ccc3c(c2o1)CN(Cc1ccccc1)CO3`, the “activation” value was inactive: -16.3%.

Consider `CC(C)CN(CCNC(=O)c1cn(C)c2ccc(S(=O)(=O)N3CCCC3)cc2c1=O)CC(C)C`, for which the “activation” value was inactive: -9.44%.

For the molecule `CCCN(C(=O)CCNC(=O)Cn1cnc2ccccc2c1=O)c1cccc(C)c1`, the “activation” value was inactive: -6.12%. Then `CCOc1cc(C2c3c(oc4ccccc4c3=O)C(=O)N2c2ccccn2)ccc1O` (configuration not stated), with inactive: -15.1%.

For `Cc1ccc(C)c(-c2[nH]c3c(c2-c2c(-n4cccc4)n(C)c(=O)n(C)c2=O)c(=O)n(C)c(=O)n3C)c1`, the “activation” value is inactive: 0.924%. Next, `Cc1cccc(NC(=O)COc2cccc3c(=O)n(C)ccc23)c1C`: inactive: -12.2%. `Cc1ccc(-n2nc(C(=O)N3CCN(c4cccc(C(F)(F)F)c4)CC3)c3c4ccccc4n(C)c3c2=O)cc1`: the “activation” value was inactive: -6.08%. Next, `CCOC(=O)c1ccc2[nH]c(CSc3nnc(-c4cccc(F)c4)n3C)cc(=O)c2c1`: inactive: 0.789%; `CCC(C)NC(=O)c1sc2ncccc2c1-n1c(C)ccc1C` (configuration not stated): inactive: -17.8%; `Cc1ccc(CNc2cc(C)nc3nc(-c4cccc(C)c4)nn23)cc1`: inactive: -37.9%.

For the molecule `CCOC(=O)c1c(NC(=O)c2cc(Cl)ccc2Cl)sc2c1CCCC2`, the “activation” value is inactive: 8.32%.

On to `COc1ccc(OC)c(NC(=O)c2cc(=O)c3c(C)cc(C)cc3o2)c1`, for which the “activation” value is inactive: -6.9%. Next, `Cc1ccc(CNc2nccn(-c3cc(C)cc(C)c3)c2=O)cc1`: inactive: -8.9%; `CCN(C(=O)CSc1nc2n[nH]c(C)c2c(=N)n1-c1cccc(OC)c1)c1cccc(C)c1`: inactive: -4.47%; `COc1ccc(-c2ccc(CCC(=O)O)n2-c2ccc(Cl)cc2C)cc1`: inactive: -4.68%.

For the molecule `CCN(C(=O)CSc1nc2ccccc2n1CC(=O)Nc1ccc(F)cc1F)c1ccccc1`, the “activation” value was inactive: -23.4%. On to `CCOC(=O)c1cccc(NC(=O)CCc2c(C)nn(-c3ccc(N4CCOCC4)nn3)c2C)c1`, for which the “activation” value was inactive: 1.28%.

Turning to `Cc1cn2c(=O)c(S(=O)(=O)NCc3ccccc3Cl)c(C)nc2s1`, the “activation” value is inactive: -3.89%. Next, `Cc1cc(C)n(CCc2nc3c4ccccc4nc(N4CCN(c5ccc(F)cc5)CC4)n3n2)n1`: inactive: -4.85%.

Consider `COCCCn1c(=O)c2sccc2n2c(CCCC(=O)NCc3ccc(F)cc3)nnc12`, for which the “activation” value is inactive: -9.54%. As for `CCn1cc(S(=O)(=O)c2cccc(C)c2)c(=O)c2cc(F)c(N3CCN(c4ccccc4)CC3)cc21`, the “activation” value was inactive: 4.38%.

For `COc1ccc(NC(=O)C2CCN(c3cnccn3)CC2)cc1Cl`, the “activation” value is inactive: 0.362%. Then `Cc1ccc2[nH]c3c(=O)n(CC(=O)NCCc4ccc(Cl)cc4)ncc3c2c1`, with inactive: 3.37%; and `COc1ccc(C2Oc3nc(SC)nnc3-c3ccccc3N2C(C)=O)cc1` (configuration not stated), with inactive: -4.16%. Next, `CCc1ccc(-n2nc(CO)c(C(=O)NCc3ccccc3OC)n2)cc1`: inactive: -7.98%. Then `COc1ccc(CNC(=O)c2cnn(-c3ccc(F)cc3)c2-n2cccc2)cc1`, with inactive: -2.68%; and `CCCCN(CCCNC(=O)c1c(C)oc2nc[nH]c(=O)c12)Cc1ccccc1`, with inactive: -10.1%; and `Cc1ccc(NC(=O)Cn2cc(S(=O)(=O)N3CCC(C)CC3)c3ccccc3c2=O)c(Br)c1`, with inactive: 2.53%. `Cc1cccc(Oc2ccc3c(c2)Oc2ccccc2NC3=O)c1`: the “activation” value is inactive: -28.6%. Next, `COc1ccc(-c2nnc(SCC(=O)N(C)Cc3ccccc3)o2)cc1OC`: inactive: 5.41%.

Turning to `CNC(=O)c1c(NC(=O)c2ccc(S(=O)(=O)N3CCCCC3C)cc2)sc2c1CCC2` (configuration not stated), the “activation” value is inactive: -23.1%. For the molecule `Cc1ccc(Nc2c(-c3cccnc3)nc3ccc(Br)cn23)cc1`, the “activation” value was inactive: -16.6%. Next, `Cc1c(Cl)cccc1NC(=O)Cn1cc2c(n1)CCCC2`: inactive: -20.2%; `COc1ccc(C)cc1-n1nnc(C(=O)Nc2cccc(SC)c2)c1C`: inactive: -13.1%; `CCOC(=O)c1cc(-c2ccccc2)n(-c2cccc(C(=O)Nc3cccc(C(C)=O)c3)c2)c1C`: inactive: -6.87%. With `COc1cccc(N2CCN(C(=O)CN3C(=O)COc4ccc(S(=O)(=O)N5CCC(C)CC5)cc43)CC2)c1`, the “activation” value is inactive: -3.11%.

As to `Cc1oc2c(c(C)cc3oc(=O)c(CC(=O)NCc4ccccc4)c(C)c32)c1C`, the “activation” value is inactive: -13.9%.

`Cc1cccc(CNC(=O)c2ccc(NC(=O)N3CCSc4ccccc43)cc2)c1`: the “activation” value was inactive: -7.36%. `COc1ccc(C(=O)NCC(c2cccnc2)N2CCc3ccccc32)cc1OC` (configuration not stated): the “activation” value is inactive: -18.7%. For the molecule `Cc1ccc(NC(=O)Cn2c(SCc3ccc(F)cc3)nc3cccnc32)cc1F`, the “activation” value is inactive: -14.5%. Take `O=C(O)c1ccc(NC(=O)c2cc3ccccc3o2)cc1`: the “activation” value was inactive: -6.11%. Next, `O=C(NCCCN1CCN(c2ccccc2F)CC1)c1cc2c(s1)-c1ccccc1OC2`: inactive: -15.3%. Next, `O=C(CSc1nc2c([nH]c3ccccc32)c(=O)n1-c1ccccc1)N1CCCCCC1`: inactive: -9.76%; `CC1CCc2c(sc(NC(=O)COc3ccccc3C(C)(C)C)c2C#N)C1` (configuration not stated): inactive: -16.7%; `Cc1nc2c3ccccc3nc(NNC(=O)CCC(=O)N3CCN(c4cccc(C(F)(F)F)c4)CC3)n2n1`: inactive: -9.11%. Then `O=C(Nc1cccc(F)c1)C1CCN(c2nc3ccccc3[nH]2)CC1`, with inactive: -11.5%. Turning to `Cc1cccc(-n2ccnc2SCC(=O)Nc2ccc3c(c2)OCO3)c1`, the “activation” value was inactive: -12.2%. Next, `CCc1cccc(NC(=O)CCS(=O)(=O)c2ccc3nc(C)sc3c2)c1`: inactive: -5.05%; `CCc1ccc(-n2nc(C)c3c(C)cc(=O)n(CC(=O)Nc4ccccc4C(=O)OC)c32)cc1`: inactive: -14.8%. Next, `CSCCC(NS(=O)(=O)c1ccc2c(c1)oc(=O)n2C)C(=O)N1CCN(c2ccc(F)cc2)CC1` (configuration not stated): inactive: -20%. Then `CCCCOc1ccc(C(=O)N/C(=C\c2ccc(Br)cc2)C(=O)NC2CCCCC2)cc1`, with inactive: -1.59%; and `COc1ccc(CNc2ncnc3c2cnn3-c2ccc(C)c(C)c2)cc1`, with inactive: -13%; and `COc1ccc(CN2C(=O)c3oc4ccccc4c(=O)c3C2c2ccc(O)c(OC)c2)cc1` (configuration not stated), with inactive: -6.31%.
